We go through 18 molecules from the supplement of paper PMC10369915.

The list shows a part of the results. Rule as the data show it: active = 3.2 or more and inactive = the rest. Most of these values are background signal.

The chains are these.
B1: NEB_Y2770_R2773Q (peptide)
chain: AKRKGYDMQVD
B2: NEDD9_Y177 (peptide)
chain: YQKDVYDIPPS
B3: MYOC_Y479_I477S (peptide)
chain: SSMSDYNPLEK
B4: MYLK_Y611 (peptide)
chain: SRKSEYLLPVA
B5: NDST1_Y714_R709Q (peptide)
chain: QAYSWYQHQRA
B6: NATD1_Y45_V42I_YF (peptide)
chain: RAILLYEFVGK
B7: MYOC_Y479_N480K (peptide)
chain: SSMIDYKPLEK
B8: NEDD4L_Y680_Y679C_YF (peptide)
chain: MFNPCYGLFEF
B9: MYOF_Y1137_V1136I_YF (peptide)
chain: NFDRIYIFHLR
B10: NBEAL2_Y1835 (peptide)
chain: SSAETYSRMRL
B11: MYH7_Y266_I263T (peptide)
chain: ADTETYLLEKS
B12: NCAPD2_Y6 (peptide)
chain: MAPQMYEFHLP
B13: MYOF_Y1137 (peptide)
chain: NFDRVYIYHLR
B14: NEDD4L_Y680_Y679C (peptide)
chain: MFNPCYGLFEY
B15: MYOC_Y479_I477N (peptide)
chain: SSMNDYNPLEK
B16: MYH7_Y588_G584S (peptide)
chain: ASIVDYNIIGW
B17: NDRG2_Y47_G48V (peptide)
chain: SVETPYVSVTF
B18: MYO7A_Y1668_S1666G (peptide)
chain: PTDGVYVMPTV
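Also: displayed peptides selected on beads carrying the immobilized SH2 domain, with library peptides lacking any tyrosine serving as negative controls.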

The target of the first assay is SHP2 C-SH2 domain E139D. Description: enrichment score (SH2-bound / input frequency) (ratio); bacterial display of known human phosphotyrosine sites (pTyr-Var adds point mutants) read by sequencing; higher = stronger binding; tyrosines were phosphorylated by kinases first. Conditions: peptide library: pTyr-Var.
In the case of B1, the enrichment score was inactive: 0.499.

For the molecule B2, the enrichment score was inactive: 0.58.

For the molecule B3, the enrichment score is inactive: 0.629.

Take B4: the enrichment score is inactive: 0.769.

For B5, the enrichment score is inactive: 1.34.

On to B6, for which the enrichment score was inactive: 2.42.

In the case of B7, the enrichment score was inactive: 0.48.

In the case of B8, the enrichment score is inactive: 1.54.

With B9, the enrichment score was active: 3.21.

As to B10, the enrichment score was inactive: 0.7.

With B11, the enrichment score was inactive: 0.654.

B12: the enrichment score was inactive: 0.954.

Consider B13, for which the enrichment score was inactive: 2.38.

As to B14, the enrichment score was inactive: 1.1.

As to B15, the enrichment score is inactive: 0.731.

Turning to B16, the enrichment score was inactive: 0.814.

With B17, the enrichment score is inactive: 1.01.

In the case of B18, the enrichment score is inactive: 0.665.

The next assay deals with SHP2 C-SH2 domain wild-type. Described as above. Conditions: peptide library: pTyr-Var.
On to B1, for which the enrichment score was inactive: 0.501.

As for B2, the enrichment score is inactive: 0.617.

In the case of B3, the enrichment score was inactive: 0.596.

On to B4, for which the enrichment score was inactive: 0.723.

As for B5, the enrichment score was inactive: 1.19.

For B6, the enrichment score was inactive: 2.91.

B7: the enrichment score was inactive: 0.466.

With B8, the enrichment score is inactive: 1.18.

In the case of B9, the enrichment score was inactive: 2.78.

For B10, the enrichment score was inactive: 0.638.

As for B11, the enrichment score was inactive: 0.676.

On to B12, for which the enrichment score was inactive: 0.886.

B13: the enrichment score was inactive: 3.1.

As to B14, the enrichment score is inactive: 1.04.

Regarding B15, the enrichment score was inactive: 0.768.

Take B16: the enrichment score is inactive: 0.721.

Consider B17, for which the enrichment score was inactive: 1.41.

For the molecule B18, the enrichment score is inactive: 0.708.

A further assay has as its target SHP2 N-SH2 domain L43F. The assay is described as above. Particulars: peptide library: pTyr-Var.
Regarding B1, the enrichment score is inactive: 0.726.

Regarding B2, the enrichment score was inactive: 0.703.

On to B3, for which the enrichment score is inactive: 0.576.

For the molecule B4, the enrichment score is inactive: 0.836.

Consider B5, for which the enrichment score is inactive: 1.14.

As to B6, the enrichment score was inactive: 2.49.

For B7, the enrichment score is inactive: 0.615.

For B8, the enrichment score was inactive: 1.21.

For the molecule B9, the enrichment score is inactive: 2.96.

Regarding B10, the enrichment score was inactive: 0.663.

For the molecule B11, the enrichment score was inactive: 0.699.

On to B12, for which the enrichment score is inactive: 0.904.

Turning to B13, the enrichment score was active: 3.3.

With B14, the enrichment score is inactive: 1.17.

Regarding B15, the enrichment score was inactive: 0.735.

For B16, the enrichment score is inactive: 0.718.

As for B17, the enrichment score is inactive: 1.27.

Take B18: the enrichment score is inactive: 0.58.

The target in another assay is SHP2 N-SH2 domain T42A. The description is as above. Conditions: peptide library: pTyr-Var.
As for B1, the enrichment score was inactive: 0.403.

In the case of B2, the enrichment score is inactive: 0.572.

Regarding B3, the enrichment score is inactive: 0.622.

Take B4: the enrichment score is inactive: 0.697.

With B5, the enrichment score was inactive: 1.28.

As to B6, the enrichment score is inactive: 2.53.

As to B7, the enrichment score is inactive: 0.509.

Consider B8, for which the enrichment score was inactive: 1.26.

On to B9, for which the enrichment score is inactive: 2.58.

As for B10, the enrichment score was inactive: 0.583.

Take B11: the enrichment score is inactive: 0.546.

In the case of B12, the enrichment score was inactive: 0.709.

As for B13, the enrichment score is inactive: 1.64.

B14: the enrichment score is inactive: 1.06.

In the case of B15, the enrichment score was inactive: 0.658.

Take B16: the enrichment score is inactive: 0.999.

As for B17, the enrichment score is active: 3.22.

For B18, the enrichment score is inactive: 0.388.

The next assay concerns the target SHP2 N-SH2 domain T52S. Described as above. Conditions: peptide library: pTyr-Var.
As to B1, the enrichment score was inactive: 0.477.

B2: the enrichment score is inactive: 0.586.

For B3, the enrichment score was inactive: 0.617.

Consider B4, for which the enrichment score was inactive: 1.11.

B5: the enrichment score is inactive: 1.18.

Turning to B6, the enrichment score was inactive: 2.52.

Turning to B7, the enrichment score is inactive: 0.732.

On to B8, for which the enrichment score is inactive: 1.16.

For B9, the enrichment score was inactive: 2.96.

Regarding B10, the enrichment score was inactive: 0.582.

Take B11: the enrichment score was inactive: 0.546.

As for B12, the enrichment score was inactive: 0.691.

On to B13, for which the enrichment score is active: 4.33.

In the case of B14, the enrichment score was inactive: 1.03.

For the molecule B15, the enrichment score was inactive: 0.724.

B16: the enrichment score is inactive: 0.675.

For the molecule B17, the enrichment score is inactive: 1.5.

On to B18, for which the enrichment score is inactive: 0.532.

In the next assay the target is SHP2 N-SH2 domain wild-type. The assay is described as above. Particulars: peptide library: pTyr-Var.
As for B1, the enrichment score is inactive: 0.647.

Take B2: the enrichment score is inactive: 0.67.

Consider B3, for which the enrichment score was inactive: 0.876.

B4: the enrichment score was inactive: 0.807.

B5: the enrichment score is inactive: 1.34.

B6: the enrichment score was inactive: 3.06.

With B7, the enrichment score was inactive: 0.673.

With B8, the enrichment score is inactive: 1.37.

Regarding B9, the enrichment score was inactive: 3.02.

For B10, the enrichment score was inactive: 0.63.

On to B11, for which the enrichment score was inactive: 0.729.

As to B12, the enrichment score is inactive: 1.

As to B13, the enrichment score is inactive: 1.88.

B14: the enrichment score was inactive: 1.05.

B15: the enrichment score was inactive: 0.79.

Regarding B16, the enrichment score is inactive: 0.815.

For the molecule B17, the enrichment score is inactive: 1.46.

On to B18, for which the enrichment score was inactive: 0.764.
